Article PMC4336329 (PLoS ONE, 2015)
The whole screen tested about 310,000 compounds, of which about 2,200 (0.71%) showed an effect of 50% or more. The effect is printed as a negative number. The list shows a part of the results.

These compounds were tested against human ether-à-go-go-related gene (hERG) potassium channel (human, UniProt Q12809) (assay: primary screen, population patch clamp on CHO cells stably expressing hERG).
Chain of human ether-à-go-go-related gene (hERG) potassium channel (Q12809 whole entry, looked up): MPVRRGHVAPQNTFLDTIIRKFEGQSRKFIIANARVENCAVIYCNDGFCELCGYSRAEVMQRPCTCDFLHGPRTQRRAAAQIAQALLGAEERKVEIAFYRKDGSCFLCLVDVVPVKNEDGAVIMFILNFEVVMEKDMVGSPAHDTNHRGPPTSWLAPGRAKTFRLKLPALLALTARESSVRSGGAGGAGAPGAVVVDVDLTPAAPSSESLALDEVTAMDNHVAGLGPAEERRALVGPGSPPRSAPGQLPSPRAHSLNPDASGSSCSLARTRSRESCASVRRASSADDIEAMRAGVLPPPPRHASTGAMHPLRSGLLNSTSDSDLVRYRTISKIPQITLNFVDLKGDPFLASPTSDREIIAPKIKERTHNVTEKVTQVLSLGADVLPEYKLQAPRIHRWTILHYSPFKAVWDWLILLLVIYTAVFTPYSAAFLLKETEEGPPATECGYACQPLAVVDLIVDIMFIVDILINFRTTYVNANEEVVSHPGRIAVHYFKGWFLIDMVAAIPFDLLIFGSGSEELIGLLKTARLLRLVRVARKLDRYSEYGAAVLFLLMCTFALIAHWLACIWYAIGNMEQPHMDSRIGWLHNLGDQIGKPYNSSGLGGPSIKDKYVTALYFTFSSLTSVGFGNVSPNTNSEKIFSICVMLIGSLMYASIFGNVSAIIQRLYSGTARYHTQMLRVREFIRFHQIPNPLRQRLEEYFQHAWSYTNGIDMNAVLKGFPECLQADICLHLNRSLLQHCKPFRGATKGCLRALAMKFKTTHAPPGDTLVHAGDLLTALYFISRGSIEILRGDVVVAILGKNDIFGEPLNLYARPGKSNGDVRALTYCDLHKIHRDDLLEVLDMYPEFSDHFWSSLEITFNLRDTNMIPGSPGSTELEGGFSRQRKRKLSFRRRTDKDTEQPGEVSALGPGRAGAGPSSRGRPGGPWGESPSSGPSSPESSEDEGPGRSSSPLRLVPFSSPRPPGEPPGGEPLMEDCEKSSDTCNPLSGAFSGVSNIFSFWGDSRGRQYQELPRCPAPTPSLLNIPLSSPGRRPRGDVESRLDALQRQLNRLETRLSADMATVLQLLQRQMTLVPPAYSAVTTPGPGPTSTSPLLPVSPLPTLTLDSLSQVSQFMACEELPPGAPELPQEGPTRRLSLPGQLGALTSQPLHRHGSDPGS

SMILES	hERG current change (%, negative = inhibition) at 1uM [%]
COc1ccc(C(=O)NCc2nnc(SCC(=O)N3CCCC3)o2)cc1	13.2
O=[N+]([O-])c1ccc(CCNc2cccc3ccccc23)c([N+](=O)[O-])c1	9.24
COc1cccc(NC(=S)NNC(=O)c2ccccc2OC(F)F)c1	7.66
COc1ccc(C)cc1NC(=O)CNC(=O)c1sc2ccccc2c1Cl	10.8
O=C(NCCc1ccc(Cl)cc1Cl)c1cc([N+](=O)[O-])c[nH]c1=O	19.2
Cc1nn(-c2ccccc2)c(C)c1C(=O)Nc1ccc(N2CCOCC2)cc1	9.67
Cl.Fc1ccc(C(OCCN2CCCC2)c2ccc(F)cc2)cc1	-37.9
COc1cc(C2C3=C(CCCC3=O)Nc3ccc4ncccc4c32)ccc1O (stereo not drawn)	9.67
COc1ccc(CNC(=O)c2c(O)c3ccccc3n(C)c2=O)cc1OC	6.33
CCCCCCC(=O)Nc1ccc(Cl)cn1	12.1
COc1ccc(S(=O)(=O)N2CCN(CC(=O)Nc3cc(OC)cc(OC)c3)CC2)cc1	0.704
NC(=O)C1CCN(C(=O)CC(c2ccccc2)c2ccccc2)CC1	11.2
COc1ccc(N(CC(=O)Nc2ccc(C)c(C)c2)S(=O)(=O)c2c(C)noc2C)cc1	10.3
COc1cc(/C=C2/SC(=S)N(Cc3ccccc3)C2=O)ccc1OS(C)(=O)=O	17.1
O=C(NCCC(=O)N1CCN(S(=O)(=O)c2ccc(F)cc2)CC1)Nc1ccccc1	5.45
Cc1ccc(/C=N/N(C)C2=NS(=O)(=O)c3ccccc32)cc1	8.77
Cc1ccc(C(=O)COC(=O)c2ccccc2NC(=O)c2ccccc2)cc1[N+](=O)[O-]	7.83
O=C(CNC(=O)c1ccc(Br)cc1)N/N=C/c1cccnc1	4.68
C=CCc1c(C)[nH]c2c(OC)cccc2c1=S	9.29
CC(C)c1ccccc1NC(=O)COC(=O)Cc1ccsc1	13.4
CCN1C(=O)[C@@H]2[C@@H](c3ccc(-c4ccc(Cl)c(Cl)c4)cc3)N3CCCC[C@@]3(C(=O)OC)[C@@H]2C1=O.O=C(O)C(F)(F)F	13.4
O=C(CC1C(=O)NCCN1C(=O)Nc1ccccc1)Nc1cccc(C(F)(F)F)c1 (stereo not drawn)	2.28
CCN(CC)CCn1nc(C)nc1-c1ccccc1O	-0.78

SMILES	hERG current change (%, negative = inhibition) at 1uM [%]
NNC(=O)c1ccc(CN2CCCCC2)o1	5.28
CCOc1ccc(C2NC(=O)CCC2[N+](=O)[O-])cc1 (stereo not drawn)	26
COc1ccccc1-c1coc2cc(OC(=O)/C=C/c3ccccc3)ccc2c1=O	13.1
N#CCCn1cc(/C=N/NC(N)=S)c(-c2ccccc2)n1	15.2
CCN(CC)CCCC(C)NC(=O)c1ccc(C(F)(F)F)cc1.Cl (stereo not drawn)	-0.836
Cc1ccc2c(CC(=O)NC3CCS(=O)(=O)C3)coc2c1C (stereo not drawn)	11.5
CCOc1cccc(NC(=O)C2CCCN(S(=O)(=O)c3ccc(-n4cnnn4)cc3)C2)c1 (stereo not drawn)	8.53
O=C(Nc1ccccc1)Nc1ccccc1C(=O)NCc1ccco1	-5.58
Cc1c(C(=O)NCCCN2CCOCC2)oc2c1C1(CCC2)SCCS1	11.3
CCc1nc(Nc2ccccc2OC)c2oc3ccccc3c2n1.Cl	8.61
CCn1cc(C2=NC(C)(C)CO2)c2ccccc21	-1.15
CCOC(=O)C1=Nc2ccccc2C1=[N+]=[N-]	2.9
Cc1ccccc1CSCCNC(=O)c1ccccc1	9.84
O=C(C(Cc1ccccc1)NS(=O)(=O)c1cccc2nsnc12)N1CCC2(CC1)OCCO2 (stereo not drawn)	7.3
CCCCS(=O)Cc1ccccc1 (stereo not drawn)	3.88
CC(C)(C)NC(=O)CN1CCC(O)(c2ccc3c(c2)OCO3)CC1	7.67
CCOc1ccc(C(=O)c2ccccc2C(=O)O)cc1OCC	4.57
Cc1nc2c(nnn2Cc2ccccc2)c(=O)n1-c1ccccc1	4.22
CCCC(C)NC(=O)CSc1nnc2ccccn12 (stereo not drawn)	6.4
COc1cccc(OCc2nnc(SCc3cc(=O)[nH]c4ccccc34)o2)c1	-9.9
O=C(c1ccc([N+](=O)[O-])cc1)N1CCSC1c1ccccc1Cl (stereo not drawn)	2.89
O=C(O)C(=O)O.O=C(c1ccccc1)c1ccc(OCCOCCN2CCN(Cc3ccccc3)CC2)cc1	-82.8
